# Test results published in the supplement of paper PMC8728848.
# The list shows a part of the results.
# What was measured:
# Assay in all cases: glycan array binding signal (z-score within array); higher = stronger binding
# Conditions in all cases: glycan notation: IUPAC condensed, linker removed
# [1] = target: Neu5Ac(a2-6)Gal(b1-4)GlcNAc6S
# Summary of the method: (§1)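 From the Consortium for Functional Glycomics database, 3228 arrays were curated, keeping only those whose protein sequence was available. Binding is given as a within-array Z-score averaged across arrays sharing a protein sequence and across linkers. Negative Z-scores can be read as non-binding.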
# Neu5Ac(a2-6)GalNAc = target: Neu5Ac(a2-6)GalNAc
# Summary of the method: as §1
# [2] = target: Neu5Ac(a2-6)GalNAc(b1-4)GlcNAc
# Summary of the method: as §1
# [3] = target: Neu5Ac(a2-6)GalNAc(b1-4)GlcNAc6S
# Summary of the method: as §1
# [4] = target: Neu5Ac(a2-6)GlcNAc(b1-4)GlcNAc
# Summary of the method: as §1
# [5] = target: Neu5Ac(a2-6)GlcNAc(b1-4)GlcNAc(b1-4)GlcNAc
# Summary of the method: as §1
# Neu5Ac(a2-8)Neu5Ac = target: Neu5Ac(a2-8)Neu5Ac
# Summary of the method: as §1
# [6] = target: Neu5Ac(a2-8)Neu5Ac(a2-3)Gal(b1-3)GalNAc(b1-4)[Neu5Ac(a2-3)]Gal(b1-4)Glc
# Summary of the method: as §1
# [7] = target: Neu5Ac(a2-8)Neu5Ac(a2-3)Gal(b1-3)GalNAc(b1-4)[Neu5Ac(a2-8)Neu5Ac(a2-3)]Gal(b1-4)Glc
# Summary of the method: as §1
# [8] = target: Neu5Ac(a2-8)Neu5Ac(a2-3)Gal(b1-4)Glc
# Summary of the method: as §1
# [9] = target: Neu5Ac(a2-8)Neu5Ac(a2-3)Gal(b1-4)GlcNAc
# Summary of the method: as §1
# [10] = target: Neu5Ac(a2-8)Neu5Ac(a2-3)[Gal(b1-3)GalNAc(b1-4)]Gal(b1-4)Glc
# Summary of the method: as §1
# [11] = target: Neu5Ac(a2-8)Neu5Ac(a2-3)[GalNAc(b1-4)]Gal(b1-4)Glc
# Summary of the method: as §1
# [12] = target: Neu5Ac(a2-8)Neu5Ac(a2-8)Neu5Ac
# Summary of the method: as §1
# [13] = target: Neu5Ac(a2-8)Neu5Ac(a2-8)Neu5Ac(a2-3)Gal(b1-4)Glc
# Summary of the method: as §1
# [14] = target: Neu5Ac(a2-8)Neu5Ac(a2-8)Neu5Ac(a2-3)[Gal(b1-3)GalNAc(b1-4)]Gal(b1-4)Glc
# Summary of the method: as §1
# [15] = target: Neu5Ac(a2-8)Neu5Ac(a2-8)Neu5Ac(a2-3)[GalNAc(b1-4)]Gal(b1-4)Glc
# Summary of the method: as §1
# [16] = target: Neu5Ac(a2-8)Neu5Ac(a2-8)Neu5Ac(a2-8)Neu5Ac(a2-3)[GalNAc(b1-4)]Gal(b1-4)Glc
# Summary of the method: as §1
# [17] = target: Neu5Ac(a2-8)Neu5Gc(a2-3)Gal(b1-4)GlcNAc
# Summary of the method: as §1
# Neu5Ac(b1-6)GalNAc = target: Neu5Ac(b1-6)GalNAc
# Summary of the method: as §1
# [18] = target: Neu5Ac(b2-6)Gal(b1-4)GlcNAc
# Summary of the method: as §1
# Neu5Ac(b2-6)GalNAc = target: Neu5Ac(b2-6)GalNAc
# Summary of the method: as §1
# [19] = target: Neu5Ac9Ac(a2-3)Gal(b1-3)GlcNAc
# Summary of the method: as §1
# [20] = target: Neu5Ac9Ac(a2-3)Gal(b1-4)GlcNAc
# Summary of the method: as §1
# [21] = target: Neu5Ac9Ac(a2-6)Gal(b1-4)GlcNAc
# Summary of the method: as §1
# [22] = target: Neu5Gc(a2-3)Gal(b1-3)GlcNAc
# Summary of the method: as §1
# [23] = target: Neu5Gc(a2-3)Gal(b1-3)[Fuc(a1-4)]GlcNAc
# Summary of the method: as §1
# Neu5Gc(a2-3)Gal(b1-4)Glc = target: Neu5Gc(a2-3)Gal(b1-4)Glc
# Summary of the method: as §1
# [24] = target: Neu5Gc(a2-3)Gal(b1-4)GlcNAc
# Summary of the method: as §1
# [25] = target: Neu5Gc(a2-3)Gal(b1-4)GlcNAc(b1-3)Gal(b1-4)GlcNAc(b1-2)Man(a1-3)[Neu5Gc(a2-3)Gal(b1-4)GlcNAc(b1-3)Gal(b1-4)GlcNAc(b1-2)Man(a1-6)]Man(b1-4)GlcNAc(b1-4)GlcNAc
# Summary of the method: as §1
# [26] = target: Neu5Gc(a2-3)Gal(b1-4)[Fuc(a1-3)]GlcNAc
# Summary of the method: as §1
# [27] = target: Neu5Gc(a2-6)Gal(b1-4)GlcNAc
# Summary of the method: as §1
# Neu5Gc(a2-6)GalNAc = target: Neu5Gc(a2-6)GalNAc
# Summary of the method: as §1
# [28] = target: Neu5Gc(a2-8)Neu5Ac(a2-3)Gal(b1-4)GlcNAc
# Summary of the method: as §1
# [29] = target: Neu5Gc(a2-8)Neu5Gc(a2-3)Gal(b1-4)GlcNAc
# Summary of the method: as §1
# [30] = target: Neu5Gc(a2-8)Neu5Gc(a2-3)Gal(b1-4)GlcNAc(b1-3)Gal(b1-4)GlcNAc
# Summary of the method: as §1
# [31] = target: Neu5Gc(a2-8)Neu5Gc(a2-6)Gal(b1-4)GlcNAc
# Summary of the method: as §1
# [32] = target: Neu5Gc(b2-6)Gal(b1-4)GlcNAc
# Summary of the method: as §1
binder,measurement,setting,value
"CSA (Cytisus scoparius), P29257 (protein) SEELSFSFTKFKTDQKNLILQRDALITPTGKLQLTTVENGKPAAYSLGRALYSTPIHIWDKSTGDEASFATFFSFVISDAPNPSTAATDGLAFFLAPADTQPQSAGGYLGLFEKDSSYNSSNQIVAVEFDTYYNSAWDPQTNPHIGIDVNTIKSKKVSSWGFKNGNVATVLITYQPSSKSLVASLVYPSGQTSDKTSYIISANVDLKATVPEWVRIGFSATTGQTDNYIETHDILSWSFKSKLPATKN",glycan array binding signal (z-score),[1],-0.152
same,glycan array binding signal (z-score),Neu5Ac(a2-6)GalNAc,-0.203
same,glycan array binding signal (z-score),[2],-0.204
same,glycan array binding signal (z-score),[3],-0.196
same,glycan array binding signal (z-score),[4],-0.207
same,glycan array binding signal (z-score),[5],-0.199
same,glycan array binding signal (z-score),Neu5Ac(a2-8)Neu5Ac,-0.205
same,glycan array binding signal (z-score),[6],-0.254
same,glycan array binding signal (z-score),[7],-0.185
same,glycan array binding signal (z-score),[8],-0.234
same,glycan array binding signal (z-score),[9],-0.119
same,glycan array binding signal (z-score),[10],-0.169
same,glycan array binding signal (z-score),[11],0.646
same,glycan array binding signal (z-score),[12],-0.187
same,glycan array binding signal (z-score),[13],-0.196
same,glycan array binding signal (z-score),[14],-0.192
same,glycan array binding signal (z-score),[15],-0.061
same,glycan array binding signal (z-score),[16],-0.149
same,glycan array binding signal (z-score),[17],-0.203
same,glycan array binding signal (z-score),Neu5Ac(b1-6)GalNAc,-0.197
same,glycan array binding signal (z-score),[18],-0.155
same,glycan array binding signal (z-score),Neu5Ac(b2-6)GalNAc,-0.163
same,glycan array binding signal (z-score),[19],-0.2
same,glycan array binding signal (z-score),[20],-0.06
same,glycan array binding signal (z-score),[21],-0.199
same,glycan array binding signal (z-score),[22],-0.127
same,glycan array binding signal (z-score),[23],-0.202
same,glycan array binding signal (z-score),Neu5Gc(a2-3)Gal(b1-4)Glc,-0.173
same,glycan array binding signal (z-score),[24],-0.206
same,glycan array binding signal (z-score),[25],-0.204
same,glycan array binding signal (z-score),[26],-0.233
same,glycan array binding signal (z-score),[27],-0.197
same,glycan array binding signal (z-score),Neu5Gc(a2-6)GalNAc,-0.175
same,glycan array binding signal (z-score),[28],-0.25
same,glycan array binding signal (z-score),[29],-0.227
same,glycan array binding signal (z-score),[30],-0.262
same,glycan array binding signal (z-score),[31],-0.148
same,glycan array binding signal (z-score),[32],-0.18
